Some of the results follow. Antibody binding of pooled human sera (four to six donors per pool; dilution not stated) to peptides of the Trypanosoma cruzi antigen TSSA on microarrays. Quantile-normalised fluorescence in arbitrary units, mean of duplicate arrays; higher = more binding. No active / inactive call. The uninfected pools are read here as the healthy donors of the same country. The strongest signals lie near the top of the scale (about 60,000).
Tests used:
Experiment in all cases: antibody binding signal (normalised fluorescence) (arbitrary fluorescence units); higher = stronger serum antibody binding to peptide
[1] = tested on: pooled sera of chronic Chagas disease patients, Argentina
Description: (§1)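 Microarray of 15-residue peptides over residues 30-55 of Trypanosoma cruzi TSSAII, each with 1 to 10 substitutions at naturally variable positions, probed with one serum pool per country.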

[2] = tested on: pooled sera of chronic Chagas disease patients, Bolivia
Description: as §1

[3] = tested on: pooled sera of chronic Chagas disease patients, Brazil
Description: as §1

[4] = tested on: pooled sera of chronic Chagas disease patients, Colombia
Description: as §1

[5] = tested on: pooled sera of chronic Chagas disease patients, Mexico
Description: as §1

[6] = tested on: pooled sera of chronic Chagas disease patients, USA
Description: as §1

[7] = tested on: pooled sera of uninfected people, Argentina
Description: as §1

[8] = tested on: pooled sera of uninfected people, Bolivia
Description: as §1

[9] = tested on: pooled sera of uninfected people, Brazil
Description: as §1

[10] = tested on: pooled sera of uninfected people, Colombia
Description: as §1

[11] = tested on: pooled sera of uninfected people, Mexico
Description: as §1

[12] = tested on: pooled sera of uninfected people, USA
Description: as §1

Sequence | antibody binding signal [1] | antibody binding signal [2] | antibody binding signal [3] | antibody binding signal [4] | antibody binding signal [5] | antibody binding signal [6] | antibody binding signal [7] | antibody binding signal [8] | antibody binding signal [9] | antibody binding signal [10] | antibody binding signal [11] | antibody binding signal [12]
TPPSGTDKKAAAGET | 16800 | 14300 | 30400 | 3450 | 38600 | 2230 | 254 | 317 | 297 | 330 | 2490 | 143
ENKTAAGGTPSQPGA | 1420 | 1850 | 982 | 6900 | 435 | 2180 | 438 | 206 | 1520 | 375 | 3160 | 225
TPPSGTDKKTAAGGT | 14900 | 1970 | 22800 | 8750 | 36000 | 2620 | 237 | 200 | 1060 | 376 | 281 | 148
STPPSGTDKKPAAGE | 39600 | 41500 | 45400 | 8240 | 33800 | 14600 | 1080 | 256 | 465 | 304 | 3920 | 275
TDKKPATGEAPSPPG | 42600 | 47300 | 45700 | 402 | 194 | 34200 | 852 | 544 | 342 | 194 | 226 | 136
KEKKTAAGEAPSPSG | 156 | 228 | 176 | 310 | 197 | 4190 | 177 | 90.1 | 86.7 | 895 | 83.9 | 104
KENKAATGETPSPPG | 3210 | 810 | 22200 | 264 | 219 | 12700 | 199 | 223 | 136 | 142 | 115 | 2310
KENKAATGETPSPSG | 3690 | 1210 | 16900 | 245 | 173 | 12400 | 175 | 199 | 119 | 192 | 213 | 3180
KDKKAAAGETPSPPG | 157 | 204 | 209 | 211 | 194 | 562 | 126 | 90.2 | 82.7 | 68.5 | 84.8 | 196
EKKTATGGTPSQPGA | 785 | 432 | 935 | 3640 | 661 | 1550 | 471 | 962 | 432 | 608 | 773 | 839
SGKDKKAAAGEAPSP | 481 | 194 | 1070 | 1120 | 835 | 7730 | 159 | 75.8 | 98.4 | 169 | 84.3 | 90.4
STPPSGTENKTAAGG | 47500 | 48000 | 51700 | 335 | 3390 | 38100 | 2730 | 663 | 622 | 713 | 634 | 702
PSGTENKPATGGAPS | 53100 | 34100 | 47700 | 3210 | 5070 | 15600 | 2150 | 3120 | 1190 | 576 | 767 | 707
GKEKKTAAGGTPSQP | 504 | 229 | 469 | 4500 | 1110 | 1940 | 193 | 88.2 | 245 | 172 | 264 | 110
SGKDNKAAAGGTPSP | 531 | 239 | 949 | 2430 | 1000 | 1700 | 140 | 187 | 414 | 531 | 83.2 | 107
TDNKAAAGETPSQPG | 2380 | 3600 | 36300 | 202 | 185 | 1550 | 90.7 | 654 | 197 | 237 | 201 | 121
KEKKTATGETPSPPG | 192 | 233 | 362 | 208 | 235 | 4160 | 204 | 134 | 106 | 86.8 | 103 | 494
TPPSGTENKTAAGGA | 44700 | 41800 | 47500 | 441 | 1680 | 17000 | 3440 | 503 | 940 | 536 | 371 | 637
GKDNKPATGEAPSPS | 45800 | 29600 | 47200 | 3100 | 4210 | 38500 | 938 | 1170 | 247 | 438 | 352 | 131
KAAAGEAPSQSGASS | 646 | 9860 | 15600 | 310 | 212 | 6650 | 270 | 692 | 107 | 126 | 376 | 179

From the supplement of paper PMC10441789
